# Results reported in PubChem BioAssay AID504333 (National Center for Advancing Translational Sciences (NCATS), 2011).
# In all, about 360,000 compounds went through this assay and about 16,000 (4.4%) were called active. This list was built around the results that the source calls inconclusive (neither active nor inactive); the mix of calls is not that of the screen. The call rests on the fitted dose curve; in most records, active means well fitted inhibition curve with a large enough effect; inconclusive means small, poorly fitted or top-dose-only effect; inactive means no such curve, though single readings can be large or run the other way. A potency beside an inconclusive call is a rough fit, not a confirmed value.
# Target: Bromodomain adjacent to zinc finger domain protein 2B (Homo sapiens) (UniProt Q9UIF8)
# Experiment: qHTS Assay for Inhibitors of BAZ2B; further: nearly all actives have a fitted effect of over 60% in size
# Details: AlphaScreen BAZ2B-H3K14Ac peptide displacement; series mostly up to 114 µM
# How it was run: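 AlphaScreen displacement: compounds (up to 110uM) incubated 30 min at room temperature with a preformed 50 nM BAZ2B/50 nM biotinylated H3K14Ac peptide complex in PBS pH 7.4 with Tween-20. Donor and acceptor beads at 10 ug/mL final added, 20 min light-protected before reading.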
# Potency means the concentration at half of the fitted maximal effect; tags describe the fitted curve by direction and shape.
# Chain of UniProt Q9UIF8 (Q9UIF8 whole entry, looked up, the tested form may be a part): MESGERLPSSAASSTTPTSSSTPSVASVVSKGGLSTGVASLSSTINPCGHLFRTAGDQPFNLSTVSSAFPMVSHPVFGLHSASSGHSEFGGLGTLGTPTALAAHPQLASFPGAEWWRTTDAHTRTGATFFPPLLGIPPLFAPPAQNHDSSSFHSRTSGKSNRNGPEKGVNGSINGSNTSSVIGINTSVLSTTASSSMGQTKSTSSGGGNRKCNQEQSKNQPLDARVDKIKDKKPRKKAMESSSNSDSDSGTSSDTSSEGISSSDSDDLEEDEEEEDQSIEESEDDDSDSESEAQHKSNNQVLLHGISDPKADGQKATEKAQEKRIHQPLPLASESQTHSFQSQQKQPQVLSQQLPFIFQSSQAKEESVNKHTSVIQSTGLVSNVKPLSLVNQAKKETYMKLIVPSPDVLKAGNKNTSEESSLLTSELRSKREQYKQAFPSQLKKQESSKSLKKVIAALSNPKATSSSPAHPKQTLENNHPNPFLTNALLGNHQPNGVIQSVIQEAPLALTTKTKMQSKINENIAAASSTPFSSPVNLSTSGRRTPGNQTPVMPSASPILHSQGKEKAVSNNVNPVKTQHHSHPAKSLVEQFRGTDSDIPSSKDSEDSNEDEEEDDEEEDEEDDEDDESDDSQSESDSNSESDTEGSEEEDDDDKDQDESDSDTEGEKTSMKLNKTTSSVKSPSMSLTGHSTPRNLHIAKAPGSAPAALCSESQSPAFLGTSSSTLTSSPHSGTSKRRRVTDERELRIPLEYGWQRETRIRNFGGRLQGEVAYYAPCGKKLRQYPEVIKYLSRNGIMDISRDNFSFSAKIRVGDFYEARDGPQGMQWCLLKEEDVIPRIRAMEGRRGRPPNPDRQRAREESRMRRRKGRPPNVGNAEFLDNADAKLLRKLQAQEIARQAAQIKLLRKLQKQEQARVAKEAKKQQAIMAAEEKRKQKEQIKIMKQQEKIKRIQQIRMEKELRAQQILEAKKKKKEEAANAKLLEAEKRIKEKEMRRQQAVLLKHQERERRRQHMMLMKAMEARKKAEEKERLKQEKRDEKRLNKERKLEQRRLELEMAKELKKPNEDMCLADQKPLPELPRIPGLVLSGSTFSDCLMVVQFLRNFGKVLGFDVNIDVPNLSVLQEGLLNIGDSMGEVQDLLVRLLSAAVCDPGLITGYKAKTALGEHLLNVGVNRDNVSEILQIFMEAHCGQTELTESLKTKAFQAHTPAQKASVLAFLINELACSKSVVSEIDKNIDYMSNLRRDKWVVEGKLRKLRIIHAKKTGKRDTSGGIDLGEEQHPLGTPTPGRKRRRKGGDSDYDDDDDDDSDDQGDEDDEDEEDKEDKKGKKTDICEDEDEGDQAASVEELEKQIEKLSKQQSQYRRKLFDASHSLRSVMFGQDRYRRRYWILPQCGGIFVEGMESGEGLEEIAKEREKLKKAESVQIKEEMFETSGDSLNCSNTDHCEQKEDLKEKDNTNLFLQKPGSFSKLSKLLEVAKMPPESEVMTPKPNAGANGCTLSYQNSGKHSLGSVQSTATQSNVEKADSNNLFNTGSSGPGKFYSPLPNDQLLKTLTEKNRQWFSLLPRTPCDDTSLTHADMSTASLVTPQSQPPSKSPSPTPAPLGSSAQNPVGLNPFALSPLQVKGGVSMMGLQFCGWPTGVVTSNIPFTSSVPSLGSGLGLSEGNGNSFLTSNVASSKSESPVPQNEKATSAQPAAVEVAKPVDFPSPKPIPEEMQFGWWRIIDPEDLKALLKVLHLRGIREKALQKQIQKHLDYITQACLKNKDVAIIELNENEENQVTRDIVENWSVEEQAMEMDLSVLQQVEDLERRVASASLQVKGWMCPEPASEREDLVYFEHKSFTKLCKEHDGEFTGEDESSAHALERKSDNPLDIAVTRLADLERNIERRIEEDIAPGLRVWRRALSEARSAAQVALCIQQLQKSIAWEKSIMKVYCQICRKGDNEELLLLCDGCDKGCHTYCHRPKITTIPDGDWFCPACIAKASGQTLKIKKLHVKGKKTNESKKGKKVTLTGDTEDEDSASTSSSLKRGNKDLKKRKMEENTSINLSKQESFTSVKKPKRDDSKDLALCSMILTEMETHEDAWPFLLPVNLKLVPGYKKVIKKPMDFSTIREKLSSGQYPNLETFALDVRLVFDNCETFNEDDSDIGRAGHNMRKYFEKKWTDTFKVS
row,Compound,Potency
1,CC1CCN(CC(=O)N2c3ccccc3CC2C)CC1 (stereo unspecified),inactive
2,CC(=O)c1sc(NC(=O)C2=NN(c3ccccc3)C(=O)CC2)nc1C,active: 70.8 µM
3,CCCOc1ccc(C(=O)CCC(=O)Nc2ccc(N3CCN(C)CC3)cc2)cc1,active: 50.1 µM
4,Cc1nc2ccc(Cl)cc2nc(C)/c1=N\O,inactive
5,COC(=O)c1c(-c2ccccc2Cl)noc1/C=C/N(C)C,"inconclusive: 79.4 µM [inhibitor, single point]"
6,CCOC(=O)c1[nH]c(C)c(C(=O)NCc2ccc(F)cc2)c1C,"inconclusive: 89.1 µM [inhibitor, single point]"
7,COC(=O)CC1COc2ccccc2N1S(=O)(=O)c1ccc(Br)cc1 (stereo unspecified),inactive
8,O=C(Nc1ccc2nc(-c3ccco3)c(-c3ccco3)nc2c1)NC1CC1,active: 11.2 µM
9,O=C(C1CCCCC1)N1CCN=C1SCc1cccc([N+](=O)[O-])c1,"inconclusive: 79.4 µM [inhibitor, single point]"
10,c1ccc(-c2cn(C[C@H]3CC[C@H](Cn4cc(-c5ccccn5)nn4)O3)nn2)nc1,active: 0.794 µM
11,Clc1ccc(-c2cnc3n2CCCCC3)cc1,"inconclusive: 79.4 µM [inhibitor, single point]"
12,CCN(CC)c1ccc(C2C3CCCCC3(O)CCN2CC(=O)Nc2ccccc2)cc1 (stereo unspecified),"inconclusive: 44.7 µM [inhibitor, partial curve]"
13,COc1ccc(NC(C)=O)cc1NS(=O)(=O)c1cn(C)c(=O)n(C)c1=O,active: 79.4 µM
14,COc1cccc(Nc2nc(C)cc(C)c2C(N)=O)c1,inactive
15,N#C/C(=N\Nc1cccc(Cl)c1)C(=O)c1ccccc1,active: 44.7 µM
16,O=C(c1ccc([N+](=O)[O-])o1)N1CCN(c2nc3c(Cl)cccc3s2)CC1,"inconclusive: 39.8 µM [inhibitor, partial curve]"
17,O=C(NC(Cc1ccccc1)C(=O)O)/C(=C\c1ccc(Cl)cc1)NC(=O)c1ccco1 (stereo unspecified),inactive
18,Cc1[nH]c(=O)c(C#N)c(C)c1[N+](=O)[O-],inactive
19,Cc1cc(C)c(OCC(O)CN2CCN(c3ccccn3)CC2)c(C)c1 (stereo unspecified),active: 56.2 µM
20,CC(=O)Nc1ccc(NC(=O)c2ccccc2N(C)S(=O)(=O)c2ccccc2)cc1,inactive
21,CC1=NN(c2nc(-c3ccc(C)cc3)cs2)C(=O)C1N=Nc1cccc(C)c1 (stereo unspecified),"inconclusive: 7.94 µM [inhibitor, full curve, poor fit]"
22,Cc1[nH]nc(-c2ccc(O)cc2O)c1Oc1ccccc1,"inconclusive: 56.2 µM [inhibitor, partial curve]"
23,CCOc1ccc(CCNC(=O)c2sc3nc4n(c(=O)c3c2C)CCCC4)cc1,inactive
24,CC(=O)Nc1cccc(-c2csc(Nc3ccc(C)cn3)n2)c1,"inconclusive: 79.4 µM [inhibitor, single point]"
25,c1ccc(-c2nc(NCc3ccco3)c3oc4ccccc4c3n2)cc1,"inconclusive: 100 µM [inhibitor, single point]"
26,CC(C)NC(=O)c1sc2ncccc2c1-n1cccc1,inactive

row,Compound,Potency
1,COc1ccccc1/C=C/C(=O)NCc1ccccn1,inactive
2,O=C(NCCCN1CCN(c2cccc(Cl)c2)CC1)c1nnc(Cc2ccc(F)cc2Cl)o1,"inconclusive: 28.2 µM [inhibitor, full curve]"
3,Cc1ccc(N2C(=O)C(CC(=O)Nc3ccccc3)N(CCC3=CCCCC3)C2=O)cc1 (stereo unspecified),"inconclusive: 79.4 µM [inhibitor, single point]"
4,COc1ccc(C2CC(c3ccccc3)=NN2C(=S)Nc2ccccc2)cc1 (stereo unspecified),"inconclusive: 25.1 µM [inhibitor, full curve]"
5,Cc1ccccc1NC1=C/C(=N\S(=O)(=O)c2cccs2)c2ccccc2C1=O,active: 10 µM
6,O=C(O)C1CC(c2ccccc2)=NO1 (stereo unspecified),"inconclusive: 89.1 µM [inhibitor, single point]"
7,CCOc1ccc(-c2csc(/C(C#N)=C\c3ccc(O)c([N+](=O)[O-])c3)n2)cc1,active: 7.08 µM
8,On1c(-c2ccccc2)nc2ccc(Cl)cc21,"inconclusive: 89.1 µM [inhibitor, single point]"
9,COc1ccc(C(=S)N2CCN(c3cccc(Cl)c3)CC2)c(OC)c1,"inconclusive: 25.1 µM [inhibitor, full curve]"
10,O=S(=O)(Nc1nc2ccc(S(=O)(=O)N3CCCC3)cc2s1)c1ccc(F)cc1,"inconclusive: 44.7 µM [inhibitor, partial curve]"
11,O=C(NCCNC(=O)c1ccccc1Cl)c1ccco1,inactive
12,COc1ccc(NC(=S)NC(NC(=O)c2cccc3ccccc23)C(Cl)(Cl)Cl)c([N+](=O)[O-])c1 (stereo unspecified),"inconclusive: 63.1 µM [inhibitor, single point]"
13,Cc1cc(S(=O)(=O)Nc2nc(CN3CCOCC3)nc3sc4c(c23)CCC4)cc(C)c1C,"inconclusive: 89.1 µM [inhibitor, single point]"
14,CSc1nnc(SCc2nc3sc(C(=O)O)c(C)c3c(=O)[nH]2)s1,active: 50.1 µM
15,O=Cc1cc(N=Nc2ccccc2Cl)ccc1O,active: 10 µM
16,Cc1ccc(C(=O)NC(=S)N2CCN(C)CC2)cc1,"inconclusive: 100 µM [inhibitor, single point]"
17,NS(=O)(=O)c1ccc(NC2=CC(=O)C(=O)c3ccccc32)cc1,"inconclusive: 50.1 µM [inhibitor, partial curve]"
18,O=C(CCNC(=O)c1ccco1)Nc1ccccc1N1CCOCC1,inactive
19,CCOc1ccc(NC(=S)NNC(=S)Nc2cccc(C(F)(F)F)c2)cc1,"inconclusive: 56.2 µM [inhibitor, partial curve]"
20,Cc1cc(C(=O)CCC(=O)Nc2ncccc2O)c(C)s1,"inconclusive: 89.1 µM [inhibitor, single point]"
21,CC(C)C1Nc2ccc(S(N)(=O)=O)cc2C2C=CCC21 (stereo unspecified),"inconclusive: 79.4 µM [inhibitor, single point]"
22,Cc1ccc(NC2=NCC(=O)N2C2CCCC2)cc1,"inconclusive: 79.4 µM [inhibitor, single point]"
23,CC(C)CNS(=O)(=O)c1ccc(CCC(=O)Nc2ccc3c(c2)OCO3)cc1,inactive
24,COc1cccc(N2CCN(C(=O)CCCCCNc3nc(=S)[nH]c4ccccc34)CC2)c1,active: 31.6 µM
25,Cc1ccc(S(=O)(=O)N2CCN(C(=O)c3ccc4ccccc4n3)CC2)c(C)c1,active: 50.1 µM
26,CCc1cc2c(=O)c(-c3ccc4c(c3)OCCO4)coc2c(CN2CCCCC2C)c1O (stereo unspecified),"inconclusive: 79.4 µM [inhibitor, single point]"

row,Compound,Potency
1,O=c1oc2ccccc2c2c1C1O[C@](c3ccsc3)(Cc3c1ccc1ccccc31)O2,"inconclusive: 14.1 µM [inhibitor, single point]"
2,COc1ccccc1C1C(C#N)=C(N)Oc2c1c(-c1ccccc1)nn2-c1ccccc1 (stereo unspecified),"inconclusive: 44.7 µM [inhibitor, partial curve]"
3,CCN(CC)C(=O)C1CCCc2c1[nH]c1ccc(Cl)cc21 (stereo unspecified),inactive
4,COc1cc(O)c(C(CC(=O)N2CCCC(C)C2)c2ccc(N(C)C)cc2)c(OC)c1 (stereo unspecified),active: 50.1 µM
5,CCN(CC)S(=O)(=O)c1ccc(C(=O)N2CCN(c3ncccn3)CC2)cc1,inactive
6,COc1ccc(NC(=O)CC2C(=O)N(c3ccccc3)C(=O)N2Cc2ccco2)cc1 (stereo unspecified),"inconclusive: 79.4 µM [inhibitor, partial curve]"
7,CCOc1ccc(-c2c(=O)n(O)c3ccccc3[n+]2[O-])cc1,active: 56.2 µM
8,Cc1ccc(Cl)c(OCCCN(C)Cc2ccccc2)c1,active: 31.6 µM
9,Cc1c(NC(=O)C(C)N2C(=O)NC3(CCC(C)CC3)C2=O)c(=O)n(-c2ccccc2)n1C (stereo unspecified),"inconclusive: 100 µM [inhibitor, partial curve]"
10,COc1ccc(-n2c(Cc3cccn3C)nnc2SCC(=O)Nc2cc(Cl)ccc2OC)cc1,"inconclusive: 39.8 µM [inhibitor, full curve]"
11,O=C(O)c1ccc(N/N=C/C2=C(N3CCOCC3)C(=C\c3ccccc3)/CC2)cc1,active: 50.1 µM
12,Cc1ccc(C2C(/C=C3/SC(=S)NC3=O)=C(c3cccs3)Oc3ccccc32)cc1 (stereo unspecified),active: 25.1 µM
13,COc1ccc(-c2coc3cc4oc(=O)c(CC(=O)O)c(C)c4cc23)cc1,inactive
14,CC(=O)N1CCN(c2ccc(NC(=O)C(C)Oc3ccc(Cl)cc3Cl)cc2)CC1 (stereo unspecified),"inconclusive: 89.1 µM [inhibitor, partial curve]"
15,N#CCc1nn2c3c(cnc2c1C#N)C(=O)CCC3,inactive
16,O=C1CN(c2ccccc2)C(=S)N1C(=O)c1ccccc1,inactive
17,Cc1ccc(S(=O)(=O)Nc2cccc(-c3cn4ccsc4n3)c2)cc1,"inconclusive: 35.5 µM [inhibitor, partial curve]"
18,CN1C(=O)c2ccccc2Sc2ccc(NC(=O)COc3ccc(Cl)cc3)cc21,inactive
19,COc1ccc(C)cc1NC(=O)C1CCCN1S(=O)(=O)c1ccccc1F (stereo unspecified),inactive
20,CC(C)Sc1nc2c(c(=O)n1-c1ccc(F)cc1)SCC2,"inconclusive: 39.8 µM [inhibitor, partial curve]"
21,CCOCCCNC(=O)C(NC(=O)c1ccccc1O)c1ccc(Cl)cc1 (stereo unspecified),inactive
22,COc1ccc(CCNC(=O)CSCc2nc(-c3ccc(OC)c(OC)c3)oc2C)cc1OC,"inconclusive: 79.4 µM [inhibitor, single point]"
23,CCN(CC)c1ccc(NC(=O)CCN2C(=O)c3ccccc3S2(=O)=O)c(C)c1,inactive
24,Cc1cccc(CN2C(=O)/C(=C\c3ccc(C(=O)NCCN4CCOCC4)cc3)Sc3ccccc32)c1,"inconclusive: 35.5 µM [inhibitor, partial curve]"
